This is one part of the list.
How the values were obtained:
[1] = system: HSkMC (human skeletal muscle cells); assay: cytotoxicity call (relative viability < 0.9); details: 10 µM
[2] = system: HepG2; assay: cytotoxicity call (relative viability < 0.9); details: 10 µM
[3] = system: S. aureus RN4220; assay: growth inhibition call (relative growth <= 0.2); details: 50 µM

Row | SMILES | cytotoxicity call [1] | cytotoxicity call [2] | growth inhibition call [3]
1 | Cc1noc(C)c1S(=O)(=O)N(C)C[C@@H]1Oc2ccc(NS(=O)(=O)c3ccc(Cl)cc3)cc2C(=O)N([C@H](C)CO)C[C@@H]1C | inactive | inactive | inactive
2 | C[C@@H]1CN([C@@H](C)CO)C(=O)c2cc(NS(=O)(=O)c3ccc(Cl)cc3)ccc2O[C@@H](C)CCCCO[C@H]1CN(C)CC1CCCCC1 | inactive | inactive | inactive
3 | COC1CCNCC1 | inactive | inactive | inactive
4 | CN[C@H]1CCS(=O)(=O)C1 | inactive | inactive | inactive
5 | C[C@@H]1CN([C@@H](C)CO)C(=O)Cc2cc(N(C)C)ccc2O[C@@H]1CN(C)C(=O)Nc1ccc2c(c1)OCO2 | inactive | inactive | inactive
6 | Cc1noc(C)c1NC(=O)N(C)C[C@H]1Oc2ccc(NS(=O)(=O)c3c(C)noc3C)cc2CC(=O)N([C@H](C)CO)C[C@H]1C | inactive | inactive | inactive
7 | CC=CC(=O)N(CC)c1ccccc1C | inactive | inactive | inactive
8 | O=C(O)c1ccc2ccccc2c1 | inactive | inactive | inactive
9 | CCCC(=O)OC1(C(=O)CO)CCC2C3CCC4=CC(=O)CCC4(C)C3C(O)CC21C (stereo unspecified) | inactive | inactive | inactive
10 | Nc1nnc(-c2ccc([N+](=O)[O-])o2)o1 | inactive | inactive | active
11 | COc1ccc(NC(=O)N2C[C@H](O)COC[C@H]3O[C@H](CC(=O)NCc4ccccc4OC)CC[C@@H]32)cc1 | inactive | inactive | inactive
12 | C[C@@H]1CN([C@@H](C)CO)C(=O)c2cc(NC(=O)Nc3ccccc3)ccc2O[C@@H]1CN(C)S(C)(=O)=O | inactive | inactive | inactive
13 | C[C@@H]1CN([C@H](C)CO)C(=O)c2cc(NC(=O)CCCCCC(=O)Nc3ccccc3N)ccc2O[C@@H]1CN(C)S(=O)(=O)c1cn(C)cn1 | inactive | inactive | inactive
14 | C[C@@H]1CCCCO[C@@H](CN(C)S(=O)(=O)c2ccc(F)cc2)[C@@H](C)CN([C@H](C)CO)C(=O)c2cc(NC(=O)NC3CCCCC3)ccc2O1 | inactive | inactive | inactive
15 | Cc1noc(C)c1NC(=O)N(C)C[C@H]1OCCCC[C@@H](C)Oc2ccc(NC(=O)NC3CCCCC3)cc2C(=O)N([C@@H](C)CO)C[C@H]1C | inactive | inactive | inactive
16 | O=C1CC[C@H](C(=O)N2CCCCC2)N1 | inactive | inactive | inactive
17 | COc1ccc(S(=O)(=O)N(C)C[C@H]2Oc3c(NS(=O)(=O)c4ccc(F)cc4)cccc3C(=O)N([C@@H](C)CO)C[C@H]2C)cc1 | inactive | inactive | inactive
18 | Cc1ccc(S(=O)(=O)Nc2ccc3c(c2)C(=O)N([C@H](C)CO)C[C@H](C)[C@@H](CN(C)Cc2ccc(C(F)(F)F)cc2)OCCCC[C@H](C)O3)cc1 | inactive | active | inactive
19 | C[C@@H](NC(=O)N(C)C[C@@H]1OCc2ccccc2-c2ccccc2C(=O)N([C@@H](C)CO)C[C@@H]1C)c1ccccc1 | inactive | inactive | inactive

Row | SMILES | cytotoxicity call [1] | cytotoxicity call [2] | growth inhibition call [3]
20 | C[C@H]1CCCCO[C@H](CN(C)C(=O)Nc2cccc3ccccc23)[C@@H](C)CN([C@@H](C)CO)C(=O)c2cc(NC(=O)c3ccncc3)ccc2O1 | inactive | inactive | inactive
21 | C[C@@H]1CN([C@H](C)CO)C(=O)c2cccc(NS(C)(=O)=O)c2O[C@H]1CN(C)Cc1ccc(C(=O)Nc2ccccc2N)cc1 | inactive | inactive | inactive
22 | C[C@@H]1CN([C@H](C)CO)C(=O)Cc2cc(NC(=O)Nc3ccc4c(c3)OCO4)ccc2O[C@@H]1CN(C)C(=O)Nc1ccc(C(F)(F)F)cc1 | inactive | active | inactive
23 | C[C@@H]1CN([C@H](C)CO)C(=O)c2cccc(NS(=O)(=O)c3cccs3)c2O[C@H]1CN(C)S(=O)(=O)c1ccccc1 | inactive | inactive | inactive
24 | C[C@@H]1CN([C@@H](C)CO)C(=O)Cc2cc(NC(=O)Cn3cnnn3)ccc2O[C@H]1CN(C)S(=O)(=O)c1ccc(Cl)cc1 | inactive | inactive | inactive
25 | CCC=CCC=CCC=CCC=CCC=CCC=CCCC(=O)O | inactive | inactive | inactive
26 | COc1ccc(NC(=O)Nc2ccc3c(c2)CC(=O)N([C@@H](C)CO)C[C@@H](C)[C@@H](CN(C)C(=O)Nc2ccc(C(F)(F)F)cc2)O3)cc1 | inactive | inactive | inactive
27 | CCC1OC(=O)C(C)C(OC2CC(C)(OC)C(O)C(C)O2)C(C)C(OC2OC(C)CC(N(C)C)C2O)C(C)(O)CC(C)C2NC(COCCOC)OC(C2C)C1(C)O (stereo unspecified) | inactive | inactive | active
28 | Cc1noc(C)c1NC(=O)N(C)C[C@@H]1Oc2c(NC(=O)Nc3ccc(C(F)(F)F)cc3)cccc2C(=O)N([C@H](C)CO)C[C@H]1C | inactive | inactive | inactive
29 | Cc1ccc(-c2noc([C@H](C)c3ccc(CC(C)C)cc3)n2)cc1 | inactive | inactive | inactive
30 | CC(C)(C)NCC(O)COc1cccc2c1CC(O)C(O)C2 (stereo unspecified) | inactive | inactive | inactive
31 | C[C@H]1CN([C@@H](C)CO)C(=O)Cc2cc(NS(=O)(=O)c3cn(C)cn3)ccc2O[C@H]1CN(C)S(C)(=O)=O | inactive | inactive | inactive
32 | COc1ccc(-c2cc(=O)c3c(O)cc(O)c(-c4cc(-c5cc(=O)c6c(O)cc(O)cc6o5)ccc4OC)c3o2)cc1 | inactive | inactive | inactive
33 | O=C(N[C@@H](c1ccc2c(c1)OCO2)c1ccccn1)C1CCN(CCOc2ccc(Cl)cc2Cl)CC1 | inactive | inactive | inactive
34 | C[C@H](CO)N1C[C@H](C)[C@H](CN(C)S(=O)(=O)c2ccc(F)cc2)Oc2cc(C#Cc3ccc(F)cc3)ccc2S1(=O)=O | inactive | inactive | inactive
35 | COc1ccc(C(=O)c2ccccc2O)c(O)c1 | inactive | inactive | inactive
36 | O=S(=O)(NCC[C@@H]1CC[C@@H](NS(=O)(=O)c2ccccc2Cl)[C@H](CO)O1)c1ccc(Cl)cc1 | inactive | inactive | inactive
37 | CCCNC(=O)N1C[C@@H](C)[C@@H](OC)CN(C)C(=O)c2cc(NS(=O)(=O)CC(F)(F)F)ccc2OC[C@H]1C | inactive | inactive | inactive
38 | C[C@H]1CN([C@@H](C)CO)C(=O)c2cccc(NC(=O)C3CC3)c2O[C@@H]1CN(C)Cc1ccc(Oc2ccccc2)cc1 | inactive | inactive | inactive

Row | SMILES | cytotoxicity call [1] | cytotoxicity call [2] | growth inhibition call [3]
39 | C[C@@H]1CN([C@H](C)CO)C(=O)Cc2cc(NC(=O)Cn3cnnn3)ccc2O[C@H]1CN(C)S(=O)(=O)c1cccs1 | inactive | inactive | inactive
40 | C[C@@H]1CN([C@H](C)CO)C(=O)c2cc(NC(=O)Nc3ccc(C(F)(F)F)cc3)ccc2O[C@@H](C)CCCCO[C@H]1CN(C)Cc1ccc(Cl)c(Cl)c1 | inactive | inactive | inactive
41 | O=C(C[C@@H]1C[C@H]2c3cc(NC(=O)C4CCOCC4)ccc3O[C@H]2[C@H](CO)O1)NCc1cc(F)ccc1F | inactive | inactive | inactive
42 | C[C@@H]1CN([C@@H](C)CO)C(=O)c2cc(NC(=O)Cc3ccccc3)ccc2O[C@@H]1CN(C)Cc1ccc(Oc2ccccc2)cc1 | active | active | inactive
43 | COc1cc([C@@H](O)C(=O)O)ccc1O | inactive | inactive | inactive
44 | C[C@@H]1CN([C@H](C)CO)C(=O)c2cc(NC(=O)c3ccncc3)ccc2O[C@@H](C)CCCCO[C@@H]1CN(C)Cc1ccc(C(F)(F)F)cc1 | inactive | inactive | inactive
45 | C[C@H]1CN([C@@H](C)CO)C(=O)c2ccccc2-c2ccccc2CO[C@@H]1CN(C)S(=O)(=O)c1cn(C)cn1 | inactive | inactive | inactive
46 | C[C@@H]1CN([C@@H](C)CO)C(=O)Cc2cc(NC(=O)Cn3cnnn3)ccc2O[C@@H]1CN(C)Cc1ccc(Oc2ccccc2)cc1 | inactive | inactive | inactive
47 | CN1C(=O)c2cc(NS(C)(=O)=O)ccc2OC[C@@H]2O[C@@H](CC(=O)N3CCOCC3)CC[C@H]21 | inactive | inactive | inactive
48 | COc1cccc(C(=O)Nc2ccc3c(c2)C(=O)N(C)[C@@H]2CC[C@H](CC(=O)NCC(F)(F)F)O[C@@H]2CO3)c1 | inactive | active | inactive
49 | C[C@@H]1CN([C@H](C)CO)C(=O)Cc2cc(NC(=O)Nc3ccc4c(c3)OCO4)ccc2O[C@@H]1CN(C)Cc1ccc(C(=O)Nc2ccccc2N)cc1 | inactive | active | inactive
50 | CC(C)NC(=O)N(C)C[C@H]1Oc2ccc(NS(=O)(=O)c3cn(C)cn3)cc2C(=O)N([C@@H](C)CO)C[C@H]1C | inactive | inactive | inactive
51 | C[C@H]1CN([C@@H](C)CO)C(=O)Cc2cc(NC(=O)Nc3cccc4c3CCCC4)ccc2O[C@H]1CN(C)S(=O)(=O)c1ccc(Oc2ccccc2)cc1 | inactive | active | inactive
52 | C[C@@H]1CCCCO[C@H](CN(C)C(=O)CCC(F)(F)F)[C@@H](C)CN([C@H](C)CO)C(=O)c2cc(NC(=O)Nc3ccc4c(c3)OCO4)ccc2O1 | inactive | inactive | inactive
53 | O=C([C@H]1CCCO1)N1CCNCC1 | inactive | inactive | inactive
54 | C[C@H](CO)N1C[C@H](C)[C@@H](CN(C)C(=O)c2ccccc2)OCCCC[C@H](C)Oc2ccc(NC(=O)Nc3ccccc3)cc2C1=O | inactive | inactive | inactive
55 | C[C@@H]1CN([C@@H](C)CO)C(=O)Cc2cc(NC(=O)NC3CCCCC3)ccc2O[C@@H]1CN(C)Cc1ccc(C(F)(F)F)cc1 | inactive | inactive | inactive
56 | CNC[C@@H](O)[C@@H](O)[C@@H](O)[C@@H](O)CO | inactive | inactive | inactive
57 | C[C@@H]1CCCCO[C@@H](CN(C)S(=O)(=O)c2cn(C)cn2)[C@@H](C)CN([C@H](C)CO)C(=O)c2cc(NS(=O)(=O)c3ccc(F)cc3)ccc2O1 | inactive | inactive | inactive

— the antibiotic and cytotoxicity screens of Wong et al. (2023)
